Experimental data published in ChEMBL document CHEMBL4888484, “Replenishing the malaria drug discovery pipeline: Screening and hit evaluation of the MMV Hit Generation Library 1 (HGL1) against asexual blood stage Plasmodium falciparum ,using a nano luciferase reporter read-out” (2022).
About 540 (0.36%) of roughly 150,000 compounds showed an effect of 50% or more. This is one part of the list.

These compounds were tested on Plasmodium falciparum (assay: Primary screen in NF54 nanoGlo assay, in single point, at 2uM, 72h; a lower Z score goes with more inhibition). Details: timepoint 72 hour.
Format: functional, Erythrocyte

SMILES	% Inhibition	Z score
CC(C)C1CC(N2CCCC2)CN1C(=O)CC1CCCO1 (stereo not given)	0%	0.06
COC1CCCC1C1COCCN1Cc1cccc(C(=O)O)c1 (stereo not given)	1%	-0.27
COc1cc(-c2noc([C@H]3CCN(C)[C@@H](C)C3)n2)ncn1	4%	-0.71
CCOc1ccccc1CN(Cc1cc(Cl)c(O)c(OC)c1)C1CC1	-5%	1
CC(C)Cn1ncc(-c2nc([C@@H]3CCCCCN3)no2)c1C(F)F	-18%	1.67
Cc1[nH]ncc1C(=O)Nc1ccc(N2CCOC[C@@H]2C)cc1	-8%	1.59
C[C@@H]1CN(CC(=O)NCCCc2nccs2)C[C@H](C)O1	-10%	1.69
Cc1nscc1C(=O)Nc1nc(-c2ccc3c(c2)OCCO3)cs1	-6%	0.58
O=C(Nc1nc(-c2c(F)cccc2F)cs1)[C@H]1OCC[C@H]1Cn1ccnc1	-1%	0.2
CCNC(=O)N(Cc1ccco1)Cc1c(-c2ccccc2)nn(C)c1Oc1ccccc1	3%	-0.35
Cc1noc(CNC(=O)N(C)CC2(c3ccccc3)CC2)n1	-9%	1.49
CCCn1c(O)c(C(=O)NCCc2ccc(OC)cc2)c(=O)c2ccccc21	-5%	0.59
CN(CCc1nc(-c2ccccc2)no1)Cc1cnn(C)c1	8%	-0.74
Cc1ccc(C(=O)NCC(C)C)cc1N	-11%	1.42
CCc1csc(CNCc2ccc(F)cc2OC)n1	-12%	1.63
CC[C@@H](CO)N(Cc1ccsc1)C(=O)c1cncc(C)c1	-24%	2.36
Cc1c(C#N)c(N)n(CCC2=CCCCC2)c1C	-8%	1.02
CCC1CCCCC1OCC(=O)Nc1ccncc1 (stereo not given)	-15%	1.26
O=C(Cc1cn2ccsc2n1)N1CCCCCCC1	-6%	0.91
COCc1nsc(N[C@H]2CCN(c3ccc(Cl)c(F)c3)C2)n1	-3%	0.5
CC1CCN(C(=O)c2ccccc2N2CCC(NC(=O)c3ccccc3)CC2)CC1	-12%	1.08
CC(C)(C)C(NCc1csc(C2CCCO2)n1)c1ccccc1 (stereo not given)	-4%	0.45
CC(C)n1ncc(C(=O)N2CC3CCCCCC32)c1C(F)(F)F (stereo not given)	-13%	2.05
CC1=NO[C@@](C)(CNC(=O)c2ccccc2F)C1	-4%	0.6
O=C(NC1CC1)C1CCN(c2ccc(-n3cccn3)nn2)CC1	-2%	0.3
CCN(Cc1ccccn1)C(=O)C(F)(F)c1ccccn1	-6%	0.53
CC[C@H](NCc1nncn1C)c1cc(F)cc(Br)c1	0%	-0.02
O=C(NC1CCN(Cc2ccccc2F)CC1)c1nccnc1NC(=O)C1CCCCC1	-7%	0.8

SMILES	% Inhibition	Z score
COCCN(C(=O)c1cnc(C(C)(C)C)nc1O)C1CCN(C)CC1	-5%	0.59
CC[C@H](C)NC(=O)Cn1ncc2c(N3CCN(c4ccccn4)CC3)ncnc21	-11%	1.27
Cc1cc2ncc(NC(=O)Nc3ccc4c(c3)OCO4)cn2n1	-9%	1.16
Cc1cccc(CC2(NC(=O)N3CCC[C@H](C(=O)N4CCCC4)C3)CC2)c1	-10%	1.04
O=C1C[C@@H](C2CCCCC2)c2cnn(Cc3cccs3)c2N1	-15%	1.94
c1c(CN2CCCCC2)n[nH]c1C1CCCCC1	-3%	0.35
CC(=O)c1c[nH]c(C(=O)Nc2nc(C(C)C)cs2)c1	-8%	0.65
CC(C)Oc1cc(CNC(=O)[C@@H](c2ccccc2)N2CCC(O)CC2)ccn1	-7%	1.13
CC(C)(C)n1nnnc1CN1CCC[C@H]1c1nc(-c2ccccc2)n[nH]1	-2%	0.25
CCc1cc(CN2CCOc3c(O)cc(-c4nc(C)cnc4C)cc3C2)[nH]n1	0%	0.02
Cc1cccc(CN2CCCN(CCCNC(=O)c3nc(-c4ccncn4)no3)CC2)c1	1%	-0.12
CCN(CCC(=O)N(C)Cc1ccccc1)C(=O)c1cc2n(n1)CCCN(Cc1ccccc1C)C2=O	-5%	0.55
COC(=O)[C@@H]1CCc2cnccc2N1C(=O)c1cc(Cl)n(C)n1	-6%	1.31
CC1CCC(NC(=O)c2ccc3c(c2)CCCC3)CC1 (stereo not given)	-17%	1.94
Cc1csc([C@@H]2CN(c3ncnc(-c4ccccc4)n3)CCO2)n1	-12%	1.42
CC(C)[C@H](C)NCc1ccnc(N(C)C)n1	-7%	0.84
Cc1cccc(C(=O)N2CC(CN3CCCCC3)C(c3cccc(C(F)(F)F)c3)C2)c1 (stereo not given)	-2%	0.3
O=C(CNC(=O)[C@H]1CC[C@H](CNS(=O)(=O)c2ccccc2)CC1)N1CCN(c2ccccc2)CC1	37%	-1.24
C[C@H]1C(=O)N(c2ccccc2-c2ccccc2)CCN1C(=O)COc1ccc(Cl)cc1	-14%	2.43
C=CCn1c(=O)c(CNCCc2ccccn2)cc2cc(C)ccc21	18%	-2.29
CN1CCO[C@@H](CNC(=O)N(Cc2ccoc2)C2CC2)C1	-4%	0.71
C=CCn1ncc(-c2nc3c([nH]2)c(-c2cccnc2)nn3C)c1C	-14%	2.79
CO[C@@H](C)CS(=O)(=O)Nc1cnn(C)c1C	-9%	0.76
CCc1noc([C@H](C)NC(=O)c2cc(Cl)cn2C)n1	7%	-1.35
O=C(O)C1CCCCC1C(=O)N1CCC(Cc2ccccc2)CC1 (stereo not given)	0%	0
O=C(NCc1ccco1)[C@H]1CCCN(c2nc3ccccc3n(Cc3ccccc3)c2=O)C1	45%	-6.52
C[C@@H](Cc1c(Cl)cccc1Cl)NC(=O)N1CCNC(=O)CC1	-6%	0.56
